# According to the supplement of paper PMC4166925:
# ± gives the standard deviation of the averaged measurements. In all, about 33,000 sequences were measured (“E-score (dimensionless, -0.5 to 0.5)”: median about -0.046, highest 2% from about 0.36 on). The list shows a part of the results.
# Test system: T1, SpTbr T-box DNA-binding domain (GST fusion)
# T1 sequence: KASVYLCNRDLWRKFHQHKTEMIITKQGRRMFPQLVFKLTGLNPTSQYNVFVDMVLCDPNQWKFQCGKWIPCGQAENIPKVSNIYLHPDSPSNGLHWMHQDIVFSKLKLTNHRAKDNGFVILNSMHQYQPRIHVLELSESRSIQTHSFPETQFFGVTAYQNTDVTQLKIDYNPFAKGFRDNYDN
# Assay: PBM E-score of 8-mer (E-score (dimensionless, -0.5 to 0.5)); Tbr is Tbrain of the sea star Patiria miniata (Pm) or the sea urchin Strongylocentrotus purpuratus (Sp); higher = stronger binding preference; most listed sequences are background and not binding sites
# Conditions: the construct has about 5 more residues each side
# Outline: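 Each ungapped 8-mer received an enrichment E-score from the Universal PBM Analysis Suite, averaged over duplicate arrays. The proteins were Tbr T-box DNA-binding domains, covering the whole T-box plus about five flanking residues, fused to GST and expressed in BL21 E. coli at 20 °C before glutathione affinity purification. Universal Agilent oligonucleotide arrays were made double-stranded by primer extension and incubated with 200 nM protein in PBS (pH 7.5). The arrays were then scanned and quantified, and every 8-mer was scored from probe intensities.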
row,Sequence,PBM E-score of 8-mer
1,TAACTGTA,-0.1508 ± 0.00041
2,AGTTACGC,-0.0254 ± 0.033
3,GCCACGAC,-0.0111 ± 0.15
4,AGCCCGCT,-0.12 ± 0.019
5,CGACCATA,-0.0314 ± 0.02
6,ATACGTCG,-0.164 ± 0.022
7,AAAGACAT,-0.233 ± 0.038
8,TACAAATA,-0.0446 ± 0.062
9,CGGACCAC,-0.101 ± 0.084
10,CATTTGTA,-0.134 ± 0.035
11,AAAGTTAC,-0.117 ± 0.021
12,AGGGGCAT,-0.28 ± 0.066
13,GGTATTAA,0.152 ± 0.016
14,AGACTGAG,-0.109 ± 0.0076
15,CGCCTGCA,0.142 ± 0.0054
16,ACGGACTG,-0.0424 ± 0.03
17,CGAACTAA,-0.0861 ± 0.0034
18,AAAAACCA,0.0254 ± 0.099
19,GGAAATCC,-0.0939 ± 0.033
20,GACGACGA,0.216 ± 0.032
21,GCGATAAC,0.274 ± 0.012
22,CATGTGAG,0.137 ± 0.0055
23,CCGTATGC,-0.198 ± 0.0088
24,GCGCGACC,0.313 ± 0.031
25,GTCCATGA,-0.00899 ± 0.0067

row,Sequence,PBM E-score of 8-mer
1,CAGAAGGA,-0.204 ± 0.051
2,AACCTAAG,-0.133 ± 0.0067
3,CAGTTAAA,-0.21132 ± 4.2e-05
4,AGCCCTCG,-0.177 ± 0.04
5,TTCTTAAA,-0.304 ± 0.023
6,AACAGATG,-0.0675 ± 0.042
7,CCCGCAAA,-0.0144 ± 0.072
8,AAACAAAA,-0.214 ± 0.023
9,TACCTAGA,-0.0331 ± 0.0053
10,AACTAGGG,0.0057 ± 0.046
11,ACAAAAAA,-0.00374 ± 0.084
12,CACTGTCA,0.251 ± 0.045
13,CTCGCCTA,0.0209 ± 0.021
14,CAGGAAAA,-0.0938 ± 0.024
15,CGCGAGAA,0.336 ± 0.0049
16,AAGGACTT,-0.195 ± 0.043
17,AGCCTCAT,-0.25 ± 0.066
18,ATCTCATC,-0.0635 ± 0.0016
19,CGAACCCA,-0.0453 ± 0.073
20,AAACTCTC,-0.0895 ± 0.034
21,CATGGTTA,-0.0854 ± 0.073
22,CTGTACGA,-0.26 ± 0.013
23,AGTGTGAG,0.4646 ± 0.0021
24,CAAATCCA,0.0313 ± 0.0085
25,CGCCACCG,0.229 ± 0.052

row,Sequence,PBM E-score of 8-mer
1,AAGGGTCT,-0.265 ± 0.036
2,CTTGGATA,0.0416 ± 0.036
3,ACCAGTAG,-0.2 ± 0.063
4,ATTGGCGA,0.196 ± 0.023
5,GTTTAGGA,-0.269 ± 0.026
6,AGAGCGGA,-0.143 ± 0.087
7,AATCACCT,0.191 ± 0.043
8,AGCAGAGC,-0.187 ± 0.024
9,AGGACGTC,-0.291 ± 0.05
10,ACAATGCC,-0.0739 ± 0.0018
11,ATAAAGGG,-0.344 ± 0.026
12,GCCTTGCA,-0.0115 ± 0.044
13,CCTCTAAA,-0.175 ± 0.013
14,AGCATCTC,-0.0319 ± 0.011
15,GCACAAAA,-0.0512 ± 0.072
16,CACCATCG,0.216 ± 0.076
17,ACCCTCTC,0.127 ± 0.037
18,CTCGCAAA,0.0785 ± 0.06
19,GTCCCTAA,-0.232 ± 0.0042
20,GACTGTAC,-0.365 ± 0.027
21,CCTGGGAA,-0.166 ± 0.026
22,CCGATTCG,-0.0806 ± 0.048
23,ACGGTCAA,-0.2 ± 0.056
24,AACGATAA,-0.0326 ± 0.026
25,CATTACGA,-0.123 ± 0.013

row,Sequence,PBM E-score of 8-mer
1,ATAACCCG,-0.0666 ± 0.085
2,CCTGATCA,-0.0124 ± 0.002
3,CGTCATCC,0.0133 ± 0.026
4,AAAGGATC,-0.196 ± 0.077
5,TCCGCACA,0.183 ± 0.0035
6,CGTGGCGA,0.161 ± 0.027
7,ATAAAAAA,-0.123 ± 0.0048
8,GGGTACTA,-0.202 ± 0.048
9,AACGTTAG,-0.0644 ± 0.047
10,CACTCCTA,-0.00656 ± 0.054
11,CTAAATTC,-0.0452 ± 0.035
12,CGGTTCAC,0.2389 ± 0.0012
13,GACTAAGA,-0.162 ± 0.034
14,AAGACGTA,0.0109 ± 0.054
15,AAGCGGAT,-0.0884 ± 0.045
16,ATGAGGTA,-0.108 ± 0.036
17,ATCAGTTA,-0.0237 ± 0.0075
18,CTTTTCTA,0.0261 ± 0.063
19,ACGATGAT,0.1041 ± 0.0003
20,AGGTGGAT,0.0851 ± 0.085
21,CTTCTAAA,-0.0563 ± 0.037
22,TAGACTGA,-0.134 ± 0.015
23,CGATCCAG,-0.109 ± 0.011
24,GTTCGGCA,-0.0944 ± 0.086
25,ACTCACCA,-0.0326 ± 0.014

row,Sequence,PBM E-score of 8-mer
1,ACGCTGAG,-0.115 ± 0.075
2,AAAATACC,-0.167 ± 0.056
3,AAGACCCC,-0.266 ± 0.084
4,TAATGGAA,-0.155 ± 0.11
5,CGAATCAC,0.131 ± 0.013
6,GTGTTCTA,0.212 ± 0.0066
7,ACGGCGTA,-0.0858 ± 0.0069
8,ATTTGAGA,-0.142 ± 0.022
9,AAGGAACC,-0.0244 ± 0.027
10,AAAAGTAT,-0.081 ± 0.047
11,AATCAACC,-0.0279 ± 0.024
12,AGAAGTGC,0.216 ± 0.0074
13,AGCAAGCT,-0.12 ± 0.04
14,CTAAGAGC,-0.295 ± 0.047
15,AACCTCGA,-0.0446 ± 0.051
16,AAGCCGAC,-0.0625 ± 0.085
17,AGGCCCAC,-0.16 ± 0.066
18,AACTTGGA,-0.121 ± 0.036
19,CCACCTCC,0.324 ± 0.0077
20,ACTTCCGA,0.0122 ± 0.091
21,CGTTCAGC,-0.0117 ± 0.011
22,GAATACGC,-0.0379 ± 0.024
23,ACCGTCAA,0.139 ± 0.029
24,AACCGCGA,0.296 ± 0.035
25,AGGGCGAC,0.148 ± 0.023

row,Sequence,PBM E-score of 8-mer
1,GGGATGAC,-0.0302 ± 0.028
2,CGTCATAG,-0.123 ± 0.043
3,GAACATAA,0.0406 ± 0.046
4,TCACCGCA,-0.0738 ± 0.0071
5,CCAGCTGG,-0.14 ± 0.062
6,GCCTAAAC,0.0814 ± 0.021
7,ATGGCCGA,-0.157 ± 0.0097
8,GGCGGCAA,0.165 ± 0.031
9,TCGGGTAA,-0.0376 ± 0.015
10,CGGCCTGC,-0.2 ± 0.11
11,AGCGCGTG,0.252 ± 0.038
12,GCGGAGAC,-0.0435 ± 0.032
13,AGTAGTGC,-0.147 ± 0.016
14,CGGAAGCC,-0.181 ± 0.12
15,GCAACATA,0.0557 ± 0.023
16,AGTGGCGA,0.345 ± 0.034
17,GTGTCTGA,0.284 ± 0.0085
18,GCGAAGAA,0.2909 ± 0.0029
19,GTGTCCTA,0.142 ± 0.056
20,ATTCCACG,0.012 ± 0.05
21,TGACACCA,0.419 ± 0.0076
22,CGCCCAAG,-0.0715 ± 0.092
23,TCGAATAA,-0.203 ± 0.039
24,CCAGACAC,0.241 ± 0.024
25,CTCGGTCC,-0.155 ± 0.055

row,Sequence,PBM E-score of 8-mer
1,CGGTTACA,0.0905 ± 0.0011
2,CGTGATAG,0.226 ± 0.0084
3,CATTACCC,-0.181 ± 0.074
4,CATCGCCC,0.0587 ± 0.042
5,CTAAACTA,-0.191 ± 0.013
6,ACAGGCTA,-0.143 ± 0.029
7,TGATTAAA,-0.0693 ± 0.12
8,ACCGAGAT,-0.0126 ± 0.015
9,ATTTTAAG,-0.282 ± 0.051
10,AAGGGCGT,0.249 ± 0.011
11,AGGTAACG,0.0673 ± 0.013
12,CATTTTCG,-0.139 ± 0.059
13,CACTCTCG,0.262 ± 0.055
14,GGATAGAA,-0.317 ± 0.024
15,CCTGCGAG,0.137 ± 0.049
16,GCTAGACA,0.164 ± 0.077
17,GCCCTGCA,-0.219 ± 0.055
18,CGGCTGTA,0.0467 ± 0.0066
19,CTCCTGAA,-0.199 ± 0.025
20,AACCGAAG,0.0737 ± 0.023
21,AGACGTAA,-0.0693 ± 0.038
22,AAGATACC,-0.104 ± 0.022
